# Measurements: PubChem BioAssay AID686979 (National Center for Advancing Translational Sciences (NCATS), 2013)
# Values joined by “and” are separate entries in the source; they are usually repeats but may differ in a detail not shown here. Equal entries are not always repeated. The campaign covered roughly 420,000 compounds. About 50,000 (12%) were called active. Inconclusive results (about 26%) are left out. Calls come from the whole dose curve; as a rule, active = well fitted inhibition curve with a large enough effect; inconclusive = small, poorly fitted or top-dose-only effect; inactive = flat fitted curve, though single readings scatter. This is a selection; strong and weak results do not stand in their true shares. Some structures have more than one record in an assay (separate samples or runs), and their calls can disagree.
# Assay: qHTS for Inhibitors of human tyrosyl-DNA phosphodiesterase 1 (TDP1): qHTS in cells in presence of CPT; note: nearly all actives have a fitted effect of over 55% in size
# Conditions: chicken DT40 Tdp1-/-;hTDP1 cells + 20 nM CPT, ATP luminescence, 48 h; series mostly up to 46.2 µM; activity change, negative = growth inhibition: at the top concentration
# Source text: Human tyrosyl-DNA phosphodiesterase 1 (TDP1) is a novel repair gene, and we propose to use it as a new target for anticancer drug development. TDP1 is not an essential protein, but under treatment with topoisomerase I poison (camptothecin: CPT), TDP1 works as a critical factor for cell survival. To directly identify novel TDP1 inhibitors active in a cellular environment, we have knocked-out the Tdp1 gene in chicken DT40 cells (Tdp1-/-) and generated a complemented counterpart cells that contains a stable transfection of the human TDP1 gene (Tdp1-/-;hTDP1 cells). For the primary screen, Tdp1-/-;hTDP1 cells will be exposed to small molecules in the presence or absence of CPT, and their growth kinetics will be evaluated after 48 hours by measuring ATP activity. […] The hit compounds will then be evaluated in the presence or absence of CPT using Tdp1-/- cells. […] In tertiary assays, biochemical gel-based assays will be used to assess whether the hit compounds specifically target TDP1. To this end, we have screened this cell line against the MLSMR in two primary screens. In one screen we add CPT and in the other we screen in the absence of CPT; this AID represents the screen where CPT was present. NIH Chemical Genomics Center [NCGC] NIH Molecular Libraries Probe Centers Network [MLPCN] MLPCN Grant: MH095538 Assay Submitter (PI): Yves Pommier, NCI
# DT40-hTDP1 cells with 20 nM Camptothecin (add 20 microL of 1 mM CPT stock in 1 L of cell culture medium) were dispensed at 400 cells/5microL/well in tissue culture treated 1536-well white wall/solid bottom assay plates (Greiner Bio-One North America, NC, U.S.A.) using a Multidrop Combi 8 channel dispenser (Thermo Fisher, Waltham, MA, USA). 23 nL compounds and controls were transferred using the pin tool (Kalypsys, San Diego, CA, USA) to the assay plates. The assay plates were then incubated at 37 masculineC for a minimum 48 hr. Three microL of Cell Titer Glo solution was added to the plates and incubated at RT in dark for 30 min. Luminescence was read using ViewLux (Perkin Elmer) with 1 sec exposure slow speed, high gain and 2x binning.
# % is set by controls: 0 for no effect and ±100 for the full control effect; potency is the fitted concentration of half-maximal effect.
Structure (SMILES),Potency,"activity change, negative = growth inhibition"
CC1=CC(C)CC(C)OC(=O)CC(c2ccc(O)cc2)NC(=O)C(Cc2c(Br)[nH]c3ccccc23)N(C)C(=O)C(C)NC(=O)C(C)C1 (configuration not stated),active: 0.0259 µM,
CCN(CC)CCOC(=O)C(O)(c1ccccc1)c1ccccc1,,inactive: -21.6%
CNC(=O)Oc1ccc2c(c1)[C@]1(C)CCN(C)[C@@H]1N2C,inactive,
O=C(O)C(O)C(O)C(O)C(O)C(=O)O (configuration not stated) (tested in a mixture with another compound),,inactive: 9.21%
CC[C@H]1C2CC3[C@@H]4N(C)c5ccccc5[C@]45C[C@@H](C2[C@H]5O)N3[C@@H]1O (some centres not stated),,inactive: -1.7%
O=C1NC(=O)N(Cc2ccccc2)C(=O)/C1=C\c1ccco1,active: 20.6 µM,
c1ccc(C2CC2)c(OCC2=NCCN2)c1,inactive,
C[C@]12CCC3C(CC[C@]4(O)CC(O)CC[C@@]34C=O)[C@]1(O)CCC2C1=CC(=O)OC1 (some centres not stated),,inactive: 10.2%
Cc1ccc2c(Cl)cc(Cl)c(O)c2n1,,inactive: 5.36%
CN1C[C@H](C(=O)N[C@@]2(C)O[C@@]3(O)C4CCCN4C(=O)C(Cc4ccccc4)N3C2=O)C[C@H]2c3cccc4[nH]cc(c34)C[C@H]21 (some centres not stated),,inactive: 12.3%
CC(C)=CCN1CC[C@@]2(C)c3cc(O)ccc3CC1C2C (some centres not stated),,inactive: -20.6%
CCC1C2CC3C4N(C)c5ccccc5C45CC(C2C5O)N3[C@@H]1O (some centres not stated),,inactive: -13.7%
Cc1cccc(Cc2cnc(NC(=O)c3ccc4c(c3)CC(c3ccccc3)OC4=O)s2)c1 (configuration not stated),active: 25.9 µM,
C[C@]12CCC3C(CC[C@H]4C[C@@H](O)CC[C@]34C)C1C[C@@H](O)[C@@H]2O (some centres not stated),,inactive: -17.4%
CN1[C@@H](CC(=O)c2ccccc2)CCC[C@H]1C[C@H](O)c1ccccc1,inactive,
CCOP(=S)(OCC)Oc1ccc2c(C)c(Cl)c(=O)oc2c1,,inactive: -21.4%
CC(C)=CCN1CC[C@]2(C)c3cc(O)ccc3C[C@H]1[C@H]2C,,inactive: -13.7% [at 92.5 µM]
C=CCN1CC[C@@]2(C)c3cc(O)ccc3CC1[C@@H]2C,,inactive: -4.08%
O=c1[nH]c(=S)n(-c2cccc(Cl)c2)c(O)c1C=NCCN1CCNCC1,,inactive: 30.3%
CC(C)NS(=O)(=O)c1ccc(OCC(=O)N2CCN(Cc3ccc4c(c3)OCO4)CC2)c(Cl)c1,active: 16.4 µM,
CN(C)CCC=C1c2ccccc2CCc2ccccc21,,inactive: 12.4%
CNC(=O)Oc1ccc2c(c1)[C@]1(C)CCN(C)C1N2C (some centres not stated),,inactive: -25.5%
COc1cccc([C@@]2(O)CCCC[C@@H]2CN(C)C)c1,inactive,
CCc1ccccc1NC(=O)CNC1CCCCC1,,inactive: 8.35%
NC(N)=Nc1ccc2[nH]c3c(c2c1)C[C@@]1(O)[C@H]2Cc4ccc(O)c5c4[C@@]1(CCN2CC1CC1)[C@H]3O5,active: 2.31 µM,
C[N+]1(C)CCc2cc3c(cc2[C@H]1[C@@H]1OC(=O)c2c1ccc1c2OCO1)OCO3,,inactive: 11.3%

Structure (SMILES),Potency,"activity change, negative = growth inhibition"
CC(C)(O)[C@@H]1[C@H]2OC(=O)[C@@H]1[C@]1(O)C[C@H]3O[C@]34C(=O)O[C@H]2[C@]14C,inactive,
CCc1ccc(Nc2nc3c(S(=O)(=O)c4ccc(C)cc4)nnn3c3ccsc23)cc1,active: 3.66 µM,
CN1[C@H](CC(=O)c2ccccc2)CCC[C@H]1C[C@@H](O)c1ccccc1,,inactive: 13.4%
CCn1cc2nc(SCc3cccc(C(F)(F)F)c3)n(Cc3ccc(OC)cc3)c(=O)c2n1,active: 20.6 µM,
COc1ccc(-c2cc(=NCCCCCC(=O)O)c3cc(C)ccc3o2)cc1,,inactive: -19.2%
CCOc1ccc(CN(CCCl)CCCl)cc1C(=O)OC,active: 4.11 µM,
COc1ccccc1CN1CCN(C(=O)COc2cccc(C)c2)CC1,,inactive: 2.24%
CC[C@@H](CO)NC(=O)[C@@H]1C=C2c3cccc4c3c(cn4C)C[C@H]2N(C)C1,inactive,
CCn1cc(C(=O)O)c(=O)c2cc(F)c(N3CCNCC3)cc21,,inactive: -26.8%
OCC(Cl)CCl (configuration not stated),,inactive: -1.06%
CC(=O)OCC(=O)C1CCC2C3CC=C4CC(O)CCC4(C)C3CCC12C (configuration not stated),,inactive: -2.17%
O=C(O)c1ccccc1Nc1cccc(C(F)(F)F)c1,,inactive: -22.3%
C[C@]12CC[C@H]3[C@@H](CCC4=CC(=O)CC[C@@]43C)[C@@H]1CC[C@@H]2O,inactive,
CC(C)(C)C(O)C(Oc1ccc(Cl)cc1)n1cncn1 (configuration not stated),,inactive: -9.71%
C[C@]12CCC3C(CC[C@H]4C[C@@H](O)CC[C@]34C)C1C[C@@H](O)[C@H]2O (some centres not stated),,inactive: 10.8%
C[C@H](CCC(=O)O)[C@H]1CC[C@H]2[C@@H]3C(=O)C[C@@H]4CC(=O)CC[C@]4(C)[C@H]3CC(=O)[C@]12C,,inactive: 0.133%
CNC(=O)CSP(=S)(OC)OC,,inactive: 0.433%
ClC1C(Cl)C(Cl)C(Cl)C(Cl)C1Cl (configuration not stated),inactive,
CC12CC3CC(C)(C1)CC(N)(C3)C2,inactive,
CN1[C@H](CC(=O)c2ccccc2)CCC[C@H]1C[C@H](O)c1ccccc1,,inactive: -1.83%
O=C(COc1ccc2c3c(c(=O)oc2c1)CCC3)N1C[C@H]2C[C@@H](C1)c1cccc(=O)n1C2,,inactive: 33.8%
COc1cc(CNC(=O)CCCC/C=C/C(C)C)ccc1O,active: 29.9 µM and active: 11.2 µM,
CN1C[C@@H](CO)C=C2c3cccc4[nH]cc(c34)CC21 (some centres not stated),,inactive: 10.2%
CN1CCc2cc(O)cc3c2C1Cc1ccc(O)c(O)c1-3 (configuration not stated),active: 2.59 µM,
c1ccc(-c2ccc(C(c3ccccc3)n3ccnc3)cc2)cc1 (configuration not stated),active: 10.3 µM,
COc1ccc(CN2C(=O)NC(=O)/C(=C/c3cc(OC)c(OC)c(OC)c3)C2=O)cc1,,inactive: -15.6%

Structure (SMILES),Potency,"activity change, negative = growth inhibition"
CC(=O)[C@@]1(O)CC[C@H]2[C@@H]3CCC4=CC(=O)CC[C@]4(C)[C@H]3CC[C@@]21C,,inactive: 9.24%
CN(C)C1C(=O)C(C(N)=O)=C(O)C2(O)C(=O)C3=C(O)c4c(O)cccc4C(C)(O)C3CC12 (configuration not stated),,inactive: -27%
CC1=C[C@@H]2c3cccc4[nH]cc(c34)C[C@H]2N(C)C1,,inactive: -21.5%
CC(C)OC(=O)OCOP(=O)(CO[C@H](C)Cn1cnc2c(N)ncnc21)OCOC(=O)OC(C)C,,inactive: 12.5%
Cc1ccc(O)c(C(CCN(C(C)C)C(C)C)c2ccccc2)c1 (configuration not stated),,inactive: -10.1%
CC(C)=CCN1CC[C@@]2(C)c3cc(O)ccc3C[C@@H]1C2C (some centres not stated),,inactive: -20.3%
c1cc2c(cc1[C@H]1OC[C@@H]3[C@H]1CO[C@H]3c1ccc3c(c1)OCO3)OCO2,,inactive: -45.4%
Cc1ccc(-c2nc3ccc(C)cn3c2CC(=O)N(C)C)cc1,,inactive: -12.8%
COC(=O)[C@@H]1C(OC(=O)c2ccccc2)CC2CCC1N2C (some centres not stated),,inactive: -19.5%
c1cc2c(cc1[C@H]1OC[C@H]3[C@@H]1CO[C@@H]3c1ccc3c(c1)OCO3)OCO2,,inactive: -10.6%
CN1CC[C@]23c4c5ccc(O)c4OC2C(O)C=CC3[C@H]1C5 (some centres not stated),,inactive: -4.16%
CC[C@H]1OC(=O)C[C@@H](O)[C@H](C)[C@@H](O[C@@H]2O[C@H](C)[C@@H](O[C@H]3C[C@@](C)(O)[C@@H](O)[C@H](C)O3)[C@H](N(C)C)[C@H]2O)[C@@H](CC=O)C[C@@H](C)C(=O)/C=C/C(C)=C/[C@@H]1CO[C@@H]1O[C@H](C)[C@@H](O)[C@@H](OC)[C@H]1OC,inactive,
CCCCc1ccc(C(=O)O)nc1,inactive,
C[N+](C)(C)CC#CCOC(=O)Nc1cccc(Cl)c1,,inactive: -2.61%
O=c1[nH]c(=S)n(C2CC2)c(O)c1/C=N/Nc1ccccc1,,inactive: -7.17%
CCOC(=O)[C@]12Cc3cc4ccccc4cc3[C@H]1N(Cc1ccccc1)C(=O)c1cc(OC)ccc12,active: 8.2 µM,
C=CCn1c(O)c(C(=O)CCCCCC)c(=O)[nH]c1=O,active: 11.6 µM,
CCCN[C@@H]1C(=O)N2C(C(=O)OCCC)=C(C)CS[C@H]12,,inactive: -28.6%
CCC(C(=O)OCCOCCN(CC)CC)c1ccccc1 (configuration not stated),inactive,
CC1(C)OC1COc1c2occc2cc2ccc(=O)oc12 (configuration not stated),,inactive: -11% [at 9.04 µM]
CC(CCc1ccccc1)NC(C)C(O)c1ccc(O)cc1 (configuration not stated),,inactive: -22.6%
CCC(=O)O[C@]1(c2ccccc2)CCN(C)C[C@H]1C,,inactive: 5.79%
CC(C)[C@@]1(NC(=O)[C@@H]2C[C@@H]3c4cccc5[nH]cc(c45)C[C@H]3N(C)C2)O[C@@]2(O)[C@@H]3CCCN3C(=O)[C@H](Cc3ccccc3)N2C1=O,inactive,
Nc1ccc(Sc2ccc(N)cc2)cc1,inactive,
CN(C)c1ccc(/C=C/c2ccnc3c(O)cccc23)cc1,,inactive: -97.5%
c1cncc(C2CCCCN2)c1 (configuration not stated),inactive,

Structure (SMILES),Potency,"activity change, negative = growth inhibition"
C[C@H]1CN([C@@H](C)CO)C(=O)CCCn2nncc2CO[C@H]1CN(C)C(=O)Oc1ccccc1,,inactive: -12.4%
CCCN1CCc2cccc3c2[C@H]1Cc1ccc(O)c(O)c1-3,,inactive: -84.8%
C[C@]12CC[C@@H]3c4ccc(OC(=O)N(CCCl)CCCl)cc4CC[C@H]3[C@@H]1CC[C@@H]2O,,inactive: -9.57%
Cc1nn(Cc2ccccc2Cl)c(C)c1C(=O)OCC(=O)NC1CCCC(C)C1C (configuration not stated),active: 20.6 µM,
CCCCCCC(=O)c1c(O)n(-c2ccccc2OC)c(=O)[nH]c1=O (tested in a mixture with another compound),,inactive: 11.5%
O=[N+]([O-])c1cc([As](=O)(O)O)ccc1O,inactive,
COc1ccc2c3c([nH]c2c1)C(C)=NCC3,,inactive: -28.3%
C[C@@H](N)Cc1cnc[nH]1,inactive,
CN1CCC23c4c5ccc(O)c4O[C@@H]2[C@H](O)C=CC3C1C5 (some centres not stated),,inactive: 10.7%
COC(=O)[C@@H](N)CCCN=C(N)N[N+](=O)[O-],inactive,
CCOC(=O)c1cc2c(cn1)[nH]c1ccccc12,inactive,
CC(C)(C)NCC(O)c1cc(Cl)c(N)c(Cl)c1 (configuration not stated),inactive,
O=c1ccc2cc(O[C@H]3OC(CO)C(O)C(O)C3O)c(O)cc2o1 (some centres not stated),inactive,
CCn1cc(C(=O)O)c(=O)c2ccc(C)nc21,inactive,
O=c1[nH]c(=S)n(C2CC2)c(O)c1C=NCc1cccnc1,,inactive: -7.85%
O=[N+]([O-])/N=C1\NCCN1Cc1ccc(Cl)nc1,,inactive: 4.29%
O=c1ccc2cc(OC3O[C@H](CO)[C@@H](O)[C@H](O)[C@H]3O)c(O)cc2o1 (some centres not stated),,inactive: 1.73%
O=C(c1ccc(C(F)(F)F)cc1)C1CCCN(Cc2ccncc2)C1 (configuration not stated),active: 10.3 µM,
O=C(C1CC(c2ccc(Cl)c(Cl)c2)=NO1)N1CCC2(CC1)OCCO2 (configuration not stated),active: 14.6 µM,
C[C@@H]1CN(CCCn2c3ccccc3c3ccccc32)C[C@H](C)N1,active: 7.5 µM,
Cc1ccc(N2C(=O)NC(=O)/C(=C/c3ccoc3)C2=O)cc1,,inactive: -16.8%
CCC1(c2cnc[nH]2)Cc2ccccc2C1,,inactive: -27.5%
CCCCc1ccc2[nH]cc(CCN)c2c1,active: 20.6 µM,
COC(=O)C1=CO[C@@H](C)[C@@H]2CN3CC[C@]4(C(=O)Nc5ccccc54)[C@@H]3C[C@H]12,,inactive: 0.201%
